# Test results as given in PubChem BioAssay (Tox21).
# “And” between values parts separate entries of the source, which are not always exact repeats. Equal values may be shown once. Inconclusive results, whose numbers are uncertain, are shown with a selection of clear calls. For some of these results: Potencies of inconclusive entries are doubtful fits and often do not repeat. The source made the active and inactive calls. Unless noted, calls follow the shape of the dose curve; as a rule, active = well fitted curve in the direction sought with a large enough effect in the repeat runs; inconclusive = weak or mixed curves; inactive = no such curve, though single readings can be large; an effect the other way counts as inactive or inconclusive.
# Legend:
# [1] = target: Estrogen receptor beta (Homo sapiens) (UniProt Q92731); assay: qHTS assay to identify small molecule antagonists of the estrogen receptor beta (ER-beta) signaling pathway (AID 1259378; active = well fitted inhibition curve with a large enough effect in the signal ratio in the repeat runs, not every such curve was filed as active; inconclusive = weak or mixed curves, or effect the other way; inactive = no such curve, though single readings can be large or run the other way; the % refers to the signal ratio; also: potency is read from the fitted curve at half-maximal effect; as to activity, negative = inhibition: % is scaled to controls: 0 for no effect and ±100 for the full control effect); conditions: ER-beta-UAS-bla HEK293T, beta-lactamase FRET ratio, 16 h; activity, negative = inhibition: at 92.4 µM (top of the series) unless noted
# Sequence of UniProt Q92731 (Q92731 whole entry, looked up): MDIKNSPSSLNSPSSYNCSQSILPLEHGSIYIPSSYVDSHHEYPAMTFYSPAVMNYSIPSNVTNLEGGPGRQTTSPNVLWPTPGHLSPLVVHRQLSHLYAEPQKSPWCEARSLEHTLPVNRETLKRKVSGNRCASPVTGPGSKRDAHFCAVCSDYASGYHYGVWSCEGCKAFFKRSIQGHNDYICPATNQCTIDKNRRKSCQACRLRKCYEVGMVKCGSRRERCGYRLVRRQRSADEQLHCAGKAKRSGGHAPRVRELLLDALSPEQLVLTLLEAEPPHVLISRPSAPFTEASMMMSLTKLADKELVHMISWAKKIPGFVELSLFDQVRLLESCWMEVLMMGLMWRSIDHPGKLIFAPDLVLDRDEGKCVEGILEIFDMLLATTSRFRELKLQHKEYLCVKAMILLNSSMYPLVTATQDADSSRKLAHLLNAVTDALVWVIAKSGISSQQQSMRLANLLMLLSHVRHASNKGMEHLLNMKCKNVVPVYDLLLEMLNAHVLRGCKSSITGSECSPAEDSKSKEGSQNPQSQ
# Procedure, shortened: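 ER-beta-UAS-bla HEK293T cells in 2% charcoal-stripped FBS medium treated with compound plus 1nM final 17-beta-estradiol for 16 hr at 37C. Beta-lactamase reporter read by FRET substrate fluorescence after 2 hours at room temperature.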
# [2] = qHTS assay to identify small molecule agonists of the androgen receptor (AR) signaling pathway in the presence of an antagonist - cell viability counter screen (AID 1259379); also: potency is read from the fitted curve at half-maximal effect; nearly all actives have a fitted effect of over 25% in size
# Procedure, shortened: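 Cells: MDA-kb2 (MMTV-luc, AR and GR elements), 3,000/well, 5 hr settle. Added: nilutamide 3.0uM final, then compounds (15 conc.). Incubation: 16 hr, 37C, no CO2. Read-out: CellTiter-Fluor, 1 hr, fluorescence.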
# [3] = target: Thyrotropin receptor (Homo sapiens) (UniProt P16473); assay: qHTS assay to identify small molecule antagonists of the thyroid stimulating hormone receptor (TSHR) signaling pathway (AID 1259385; calls by dose curve; also: nearly all actives have a fitted effect of over 20% in size; also: potency is read from the fitted curve at half-maximal effect; as to activity change, negative = inhibition: % is scaled to controls: 0 for no effect and ±100 for the full control effect); conditions: TSHR-HEK293 cAMP HTRF, TSH-stimulated antagonist mode; activity change, negative = inhibition: at 92.4 µM (top of the series) unless noted
# Sequence of UniProt P16473 (P16473 whole entry, looked up): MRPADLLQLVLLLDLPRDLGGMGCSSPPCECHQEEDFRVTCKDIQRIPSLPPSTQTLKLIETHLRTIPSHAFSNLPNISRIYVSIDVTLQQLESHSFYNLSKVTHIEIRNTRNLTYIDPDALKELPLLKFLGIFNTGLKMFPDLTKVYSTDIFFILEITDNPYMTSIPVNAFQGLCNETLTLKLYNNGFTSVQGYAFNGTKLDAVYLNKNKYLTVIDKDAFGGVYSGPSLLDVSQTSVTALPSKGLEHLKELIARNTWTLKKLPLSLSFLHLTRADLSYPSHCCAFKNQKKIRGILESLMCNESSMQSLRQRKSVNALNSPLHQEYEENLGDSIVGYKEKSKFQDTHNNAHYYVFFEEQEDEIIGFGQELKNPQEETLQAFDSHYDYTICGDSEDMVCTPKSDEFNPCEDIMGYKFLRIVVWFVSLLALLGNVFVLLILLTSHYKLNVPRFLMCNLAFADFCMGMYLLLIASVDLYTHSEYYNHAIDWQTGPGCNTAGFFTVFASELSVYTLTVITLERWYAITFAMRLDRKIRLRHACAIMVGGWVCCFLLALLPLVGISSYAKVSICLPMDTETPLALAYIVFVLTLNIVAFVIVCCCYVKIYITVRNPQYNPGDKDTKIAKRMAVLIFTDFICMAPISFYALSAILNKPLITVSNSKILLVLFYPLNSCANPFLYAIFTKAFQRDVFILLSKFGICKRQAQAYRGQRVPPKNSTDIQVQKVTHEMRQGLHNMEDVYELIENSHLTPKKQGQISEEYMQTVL
# Procedure, shortened: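 TSHR-HEK293 cells (800/well) plated 18 h, then compounds with Ro20-1724 and TSH at 1.5 ng/mL final, 30 min at room temperature. cAMP quantified by HTRF (cAMP-d2/anti-cAMP-cryptate, 1 h); 15 concentrations in triplicate.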
# [4] = target: Progesterone receptor (Homo sapiens) (UniProt P06401); assay: qHTS assay to identify small molecule antagonists of the progesterone receptor (PR) signaling pathway (AID 1346795; active = well fitted inhibition curve with a large enough effect in the signal ratio in the repeat runs, not every such curve was filed as active; inconclusive = weak or mixed curves; the % refers to the signal ratio; also: potency is read from the fitted curve at half-maximal effect); conditions: PR-UAS-bla HEK293T, beta-lactamase FRET ratio, 16 h; activity change, negative = inhibition: at 92.4 µM (top of the series) unless noted
# Sequence of UniProt P06401 (P06401 whole entry, looked up): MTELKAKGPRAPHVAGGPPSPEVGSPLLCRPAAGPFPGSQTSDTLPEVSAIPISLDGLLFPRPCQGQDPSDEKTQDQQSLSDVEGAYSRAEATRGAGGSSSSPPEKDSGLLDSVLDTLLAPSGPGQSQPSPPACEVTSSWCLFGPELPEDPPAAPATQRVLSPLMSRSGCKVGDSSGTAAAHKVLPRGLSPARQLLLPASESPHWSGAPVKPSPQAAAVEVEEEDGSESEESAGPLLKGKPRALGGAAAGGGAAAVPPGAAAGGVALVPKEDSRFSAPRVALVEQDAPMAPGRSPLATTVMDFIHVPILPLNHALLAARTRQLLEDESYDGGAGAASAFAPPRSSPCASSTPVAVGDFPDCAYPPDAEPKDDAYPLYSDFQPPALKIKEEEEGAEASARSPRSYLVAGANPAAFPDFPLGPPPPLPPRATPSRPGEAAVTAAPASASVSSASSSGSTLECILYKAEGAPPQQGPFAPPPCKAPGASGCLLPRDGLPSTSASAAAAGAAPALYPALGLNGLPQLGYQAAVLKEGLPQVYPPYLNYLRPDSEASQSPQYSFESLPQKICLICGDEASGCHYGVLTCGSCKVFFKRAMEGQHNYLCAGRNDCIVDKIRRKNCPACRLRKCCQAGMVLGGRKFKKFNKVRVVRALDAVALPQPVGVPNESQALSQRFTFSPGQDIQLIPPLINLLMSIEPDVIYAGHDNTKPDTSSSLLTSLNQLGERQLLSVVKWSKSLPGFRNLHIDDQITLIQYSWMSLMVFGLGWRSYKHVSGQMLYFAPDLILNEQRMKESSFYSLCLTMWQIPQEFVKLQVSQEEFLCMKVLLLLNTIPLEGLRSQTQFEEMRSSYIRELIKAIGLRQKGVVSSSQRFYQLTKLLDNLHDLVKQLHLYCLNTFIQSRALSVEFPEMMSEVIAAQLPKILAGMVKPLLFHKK
# Procedure, shortened: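 Stimulus R5020 at 1 nM final; cells HEK293T PR-UAS-bla; medium with 2% charcoal-stripped FBS; compound exposure 16 hr at 37C, 5% CO2; detection by FRET beta-lactamase substrate, 2 hr, room temperature.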
# [5] = qHTS assay to identify small molecule antagonists of the progesterone receptor (PR) signaling pathway - cell viability counter screen (AID 1346798); also: nearly all actives have a fitted effect of over 50% in size; also: potency is read from the fitted curve at half-maximal effect
# Procedure, shortened: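 In the same plates used for the beta-lactamase readout, cell viability of compound- and R5020-treated PR-UAS-bla HEK293T cells (16 hr, 37C) was assessed by CellTiter-Glo luminescence.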
# [6] = qHTS assay to identify small molecule agonists of the TGF-beta/Smad signaling pathway - cell viability counter screen (AID 1346829); also: potency is read from the fitted curve at half-maximal effect; nearly all actives have a fitted effect of over 45% in size
# Procedure, shortened: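 After overnight seating at 37 C and 5% CO2, reporter cells got compounds for 5 hr and FRET substrate for 2 hr; cell viability then came from CellTiter-Glo luminescence.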
# [7] = qHTS assay to identify small molecule agonists of the estrogen receptor beta (ER-beta) signaling pathway - cell viability counter screen (AID 1259380); also: potency is read from the fitted curve at half-maximal effect; nearly all actives have a fitted effect of over 30% in size
# Procedure, shortened: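 HEK293T ER-beta-UAS-bla; 2% CS-FBS; 6 hr pre-plate, 16 hr cpd at 37C/5% CO2; LiveBLAzer read first, then CellTiter-Glo 30 min RT, luminescence.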
# [8] = qHTS assay to identify small molecule antagonists of the estrogen receptor beta (ER-beta) signaling pathway - cell viability counter screen (AID 1259382); also: nearly all actives have a fitted effect of over 55% in size; also: potency is read from the fitted curve at half-maximal effect
# Procedure, shortened: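 Cells: ER-beta-UAS-bla HEK293T, 2,000/well, 2% CS-FBS, 6 hr settle. Cpd + E2 (1nM final), 16 hr, 37C/5% CO2. Bla FRET substrate 2 hr RT, then CellTiter-Glo 30 min RT, luminescence.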
# [9] = qHTS assay to identify small molecule agonists of the estrogen receptor alpha (ER-alpha) signaling pathway in the presence of an antagonist - cell viability counter screen (AID 1259386);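 also: cells exposed to compounds for 22 h at 37 °C before the viability read; nearly all actives have a fitted effect of over 30% in size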; also: potency is read from the fitted curve at half-maximal effect
# Procedure, shortened: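 VM7Luc4E2, stripped-serum pre-culture 5 d; 24hr plating; +ICI-182,780 10.0nM final; cpds 15 conc, 22hr, 37C/5% CO2; CellTiter-Fluor added at 21hr, fluorescence 1hr later.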
# [10] = target: Progesterone receptor (Homo sapiens) (UniProt P06401); assay: qHTS assay to identify small molecule agonists of the progesterone receptor (PR) signaling pathway (AID 1346784; calls by dose curve; also: nearly all actives have a fitted effect of over 30% in size; also: potency is read from the fitted curve at half-maximal effect; as to activation: % is scaled to controls: 0 for no effect and ±100 for the full control effect); conditions: PR-UAS-bla HEK293T, beta-lactamase FRET ratio, 16 h; activation: at 92.4 µM (top of the series) unless noted
# Procedure, shortened: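 Reporter assay, GripTite PR-UAS-bla HEK 293T cells: 16 hr exposure to DMSO-dissolved compounds at 37C, 5% CO2, in steroid-depleted (2% charcoal-stripped FBS) medium; beta-lactamase measured by FRET fluorescence.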
# [11] = qHTS assay to identify small molecule agonists of the progesterone receptor (PR) signaling pathway - cell viability counter screen (AID 1346799; calls by dose curve; also: potency is read from the fitted curve at half-maximal effect; nearly all actives have a fitted effect of over 45% in size)
# Procedure, shortened: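 Multiplexed viability read: CellTiter-Glo luminescence, 30 min RT, following LiveBLAzer FRET measurement on PR-UAS-bla HEK293T cells exposed to compounds 16 hr.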
# [12] = qHTS assay to identify small molecule agonists or antagonists of the thyroid stimulating hormone receptor (TSHR) signaling pathway - wild type cell line counter screen (AID 1259384; calls by dose curve; also: % is scaled to controls: 0 for no effect and ±100 for the full control effect); conditions: HEK293 wild type, cAMP HTRF counter-screen; cAMP activity change: at 92.4 µM (top of the series), hits give high values unless noted
# Procedure, shortened: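 Wild-type Hek293 cells, 800/well, 18 h at 37C, then compound with Ro20-1724 for 30 min RT. cAMP by HTRF (cAMP-d2/anti-cAMP cryptate), 1 h RT, fluorescence read. 15 concentrations, triplicates.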
# [13] = qHTS assay to identify small molecule antagonists of the TGF-beta/Smad signaling pathway - cell viability counter screen (AID 1346824); also: potency is read from the fitted curve at half-maximal effect; nearly all actives have a fitted effect of over 50% in size
# Procedure, shortened: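 SBE-bla HEK 293T cells, incubated overnight, then compound plus 0.25 ng/mL TGF-beta1 (stock added) for 5 hr at 37 C. Viability was read in the same wells by CellTiter-Glo luminescence after 30 min at room temperature.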
# [14] = qHTS assay to identify small molecule antagonists of the TGF-beta/Smad signaling pathway (AID 1346924; active = well fitted inhibition curve with a large enough effect in the signal ratio in the repeat runs, not every such curve was filed as active; inconclusive = weak or mixed curves; the % refers to the signal ratio); conditions: SBE-bla HEK293T, TGF-beta/Smad reporter, beta-lactamase ratio; activity, negative = inhibition: at 76.8 µM (top of the series) unless noted
# Procedure, shortened: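 SBE-bla HEK 293T cells were plated overnight, then received compound in DMSO plus TGF-beta1 (added as a 0.25 ng/mL solution) and were incubated 5 h at 37 C. Beta-lactamase reporter activity was read after 2 h at room temperature with LiveBLAzer B/G FRET substrate (ex 405, em 460/530 nm).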
# [15] = target: Thyrotropin-releasing hormone receptor (Homo sapiens) (UniProt P34981); assay: qHTS assay to identify small molecule antagonists of the thyrotropin-releasing hormone receptor (TRHR) signaling pathway (AID 1346877; active = well fitted inhibition curve with a large enough effect in the repeat runs, not every such curve was filed as active; inconclusive = weak or mixed curves; also: potency is read from the fitted curve at half-maximal effect)
# Sequence of UniProt P34981 (P34981 whole entry, looked up): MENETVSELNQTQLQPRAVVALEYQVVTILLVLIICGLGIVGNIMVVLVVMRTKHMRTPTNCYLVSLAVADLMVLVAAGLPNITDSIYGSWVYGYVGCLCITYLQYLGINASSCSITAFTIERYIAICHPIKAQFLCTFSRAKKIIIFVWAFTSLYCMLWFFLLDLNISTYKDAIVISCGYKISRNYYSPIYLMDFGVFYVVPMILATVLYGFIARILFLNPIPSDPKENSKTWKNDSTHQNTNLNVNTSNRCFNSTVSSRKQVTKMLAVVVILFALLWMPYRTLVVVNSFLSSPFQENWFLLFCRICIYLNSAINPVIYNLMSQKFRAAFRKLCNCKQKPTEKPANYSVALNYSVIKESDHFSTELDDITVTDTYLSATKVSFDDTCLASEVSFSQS
# Procedure, shortened: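 Intracellular calcium fluorescence, read kinetically every second over 3 min, reports TRH-evoked signalling in HEK293 cells carrying TRHR. Test compounds were added 5 min ahead of a 1 nM TRH challenge.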
# Tags tell the direction and shape of the fitted curve or compound fluorescence and quenching.
smiles,measurement,setting,value
CCN(CC)CCOc1ccc(C(O)(Cc2ccc(Cl)cc2)c2ccc(C)cc2)cc1 (centres undefined),Potency,[1],active: 10.6 µM
same,Potency,[2],"inconclusive: 33.5 µM [cytotoxic, single point]"
same,Potency,[3],active: 29.8 µM
same,Potency,[4],"inconclusive: 33.5 µM [falling, single point]"
same,Potency,[5],active: 26.6 µM
same,Potency,[6],"inconclusive: 26.8 µM [cytotoxic, single point]"
Cc1cccc(Br)c1,"activity, negative = inhibition",[1],inconclusive: -51.6%
same,Potency,[7],active: 27.4 µM
same,Potency,[8],"inconclusive: 61.4 µM [cytotoxic, partial curve]"
same,Potency,[9],inactive
same,Potency,[10],inactive
same,Potency,[4],active: 10.9 µM
same,Potency,[11],"inconclusive: 27.4 µM [cytotoxic, partial curve]"
C=C/C(C)=C/C/C=C(\C)CCC=C(C)C,"activity, negative = inhibition",[1],inconclusive: -31%
same,Potency,[7],"inconclusive: 68.6 µM [cytotoxic, single point]"
S=c1[nH]c2ccccc2s1,Potency,[1],inconclusive: 36.4 µM
same,Potency,[7],"inconclusive: 27.3 µM [cytotoxic, full curve]"
same,Potency,[8],"inconclusive: 54.5 µM [cytotoxic, partial curve, poor fit]"
same,cAMP activity change,[12],inconclusive: 2.87%
same,Potency,[5],"inconclusive: 27.3 µM [rising, full curve, poor fit]"
same,Potency,[11],"inconclusive: 13.7 µM [rising, full curve, poor fit]"
CC(C)=CCC/C(C)=C/CC/C(C)=C/C(=O)OCC(=O)[C@@]1(O)CC[C@H]2[C@@H]3CCC4=CC(=O)C=C[C@]4(C)[C@H]3[C@@H](O)C[C@@]21C,Potency,[1],active: 13.3 µM
same,Potency,[7],"inconclusive: 6.68 µM [cytotoxic, partial curve, poor fit]"
same,Potency,[3],"inconclusive: 26.6 µM [falling, partial curve, poor fit]"
same,Potency,[9],"inconclusive: 33.5 µM [cytotoxic, single point]"
same,Potency,[4],"inconclusive: 29.8 µM [falling, partial curve]"
same,Potency,[5],"inconclusive: 3.76 µM [rising, full curve]"
same,Potency,[11],"inconclusive: 6.68 µM [rising, full curve]"
same,Potency,[13],"inconclusive: 10.7 µM [cytotoxic, partial curve]"
same,"activity, negative = inhibition",[14],inconclusive: -31.8% [at 35.3 µM]
c1ccc(C(O[C@@H]2CCCN(CCc3ccc4c(c3)OCO4)C2)c2ccccc2)cc1,Potency,[1],active: 48.6 µM
same,Potency,[2],"inconclusive: 68.6 µM [cytotoxic, partial curve, poor fit]"
same,Potency,[9],"inconclusive: 61.1 µM [cytotoxic, partial curve, poor fit]"
same,Potency,[4],inconclusive: 27.3 µM
same,Potency,[11],"inconclusive: 12.2 µM [rising, partial curve, poor fit]"
O=C1Cc2ccccc2N1c1c(Cl)cccc1Cl,Potency,[1],active: 54.5 µM
same,Potency,[2],"inconclusive: 68.6 µM [cytotoxic, single point]"
same,Potency,[3],"inconclusive: 68.6 µM [falling, single point]"
same,Potency,[10],inactive
same,Potency,[4],"inconclusive: 8.63 µM [rising, full curve]"
same,Potency,[5],"inconclusive: 61.1 µM [cytotoxic, partial curve]"
same,Potency,[11],"inconclusive: 34.4 µM [cytotoxic, partial curve]"
same,"activity, negative = inhibition",[14],inconclusive: -25.1%
Cc1cccc(N(C)C(=S)Oc2ccc3c(c2)CCC3)c1,"activity, negative = inhibition",[1],inconclusive: -31.6% [at 42.5 µM]
same,Potency,[7],"inconclusive: 6.68 µM [cytotoxic, full curve]"
same,Potency,[8],inactive
same,Potency,[4],active: 11.9 µM
same,Potency,[5],"inconclusive: 33.5 µM [cytotoxic, single point]"
C/C=C/C=C/COC(=O)C(C)C,"activity, negative = inhibition",[1],inconclusive: -39.5%
same,Potency,[2],"inconclusive: 77 µM [cytotoxic, single point]"
same,"activity, negative = inhibition",[14],inconclusive: 21.4%
Cc1ccc(C(=O)c2cc(O)c(O)c([N+](=O)[O-])c2)cc1,Potency,[1],"inconclusive: 27.3 µM and inconclusive: 11.9 µM [fluorescent, partial curve]"
same,Potency,[7],"inconclusive: 8.41 µM [cytotoxic, partial curve, poor fit]"
same,"activity change, negative = inhibition",[3],inconclusive: -15.8% [at 42.5 µM]
same,activation,[10],inconclusive: 19.7%
same,Potency,[5],"inconclusive: 13.7 µM [rising, full curve]"
O=C(O)Cc1cc(I)c(Oc2cc(I)c(O)c(I)c2)c(I)c1,Potency,[1],inconclusive: 16.9 µM
same,Potency,[7],"inconclusive: 37.8 µM [cytotoxic, partial curve, poor fit]"
same,Potency,[8],"inconclusive: 42.4 µM [cytotoxic, single point]"
same,Potency,[10],"inconclusive: 37.8 µM [cytotoxic, single point]"
same,Potency,[4],active: 18.9 µM
same,Potency,[5],inactive
same,Potency,[15],"inconclusive: 18.6 µM [inhibitor, partial curve, poor fit]"
same,"activity, negative = inhibition",[14],inconclusive: -14.1% [at 35.3 µM]
